Reference: PubChem BioAssay (NCI)
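In this assay, cells in 96-well plates receive the compound at five concentrations for 48 hours. Endpoints are linearly interpolated between the surrounding concentrations. Here, GI50 denotes the concentration required for 50% inhibition of growth. TGI marks complete inhibition of growth.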

Each compound was assayed on NCI-H322M lung (assay: growth of human tumour cells (NCI), 48 h).
For `Cn1ccnc1C(=O)/C=C/c1ccc(CNC(=O)c2ccc(F)cc2)cc1`, the GI50 was 2880 nM and the TGI was 6.77 µM. For `Cc1ccc(NC2=C(Cl)C(=O)c3nc(C)ccc3C2=O)c(C)c1`, the GI50 was 2860 nM and the TGI was 10.1 µM. Compound `CCN(CC)CCOc1ccc(C(=C(C)Cc2ccc(OC)cc2)c2ccc(OCCN(CC)CC)cc2)cc1` has a GI50 of 4660 nM and a TGI of 12.9 µM.
